# Data reported in the supplement of paper PMC8728848.
# The list shows a part of the results.
# Key:
# Assay in all cases: glycan array binding signal (z-score within array); higher = stronger binding
# Conditions in all cases: glycan notation: IUPAC condensed, linker removed
# [1] = target: Gal(b1-3)[Neu5Ac(a2-6)]GlcNAc(b1-6)Gal(b1-4)Glc
# Procedure, shortened: (§1)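 Glycan array binding is given as a within-array Z-score, which can be read as non-binding when negative. The arrays, 3228 of them, came from the Consortium for Functional Glycomics database and were retained only where the protein sequence was available. Z-scores were averaged across arrays of the same protein sequence at different concentrations or buffers and across linkers.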
# [2] = target: Gal(b1-3)[Neu5Ac(b2-6)]GalNAc
# Procedure, shortened: as §1
# [3] = target: Gal(b1-4)Gal
# Procedure, shortened: as §1
# [4] = target: Gal(b1-4)GalNAc(a1-3)[Fuc(a1-2)]Gal(b1-4)GlcNAc
# Procedure, shortened: as §1
# [5] = target: Gal(b1-4)GalNAc(b1-3)[Fuc(a1-2)]Gal(b1-4)GlcNAc
# Procedure, shortened: as §1
# [6] = target: Gal(b1-4)Glc
# Procedure, shortened: as §1
# [7] = target: Gal(b1-4)Glc6S
# Procedure, shortened: as §1
# [8] = target: Gal(b1-4)GlcNAc
# Procedure, shortened: as §1
# [9] = target: Gal(b1-4)GlcNAc(a1-6)Gal(b1-4)GlcNAc
# Procedure, shortened: as §1
# [10] = target: Gal(b1-4)GlcNAc(b1-2)Man
# Procedure, shortened: as §1
# [11] = target: Gal(b1-4)GlcNAc(b1-2)Man(a1-3)Man(b1-4)GlcNAc(b1-4)GlcNAc
# Procedure, shortened: as §1
# [12] = target: Gal(b1-4)GlcNAc(b1-2)Man(a1-3)[Gal(b1-4)GlcNAc(b1-2)Man(a1-6)]Man(b1-4)GlcNAc(b1-4)GlcNAc
# Procedure, shortened: as §1
# [13] = target: Gal(b1-4)GlcNAc(b1-2)Man(a1-3)[Gal(b1-4)GlcNAc(b1-2)Man(a1-6)]Man(b1-4)GlcNAc(b1-4)[Fuc(a1-6)]GlcNAc
# Procedure, shortened: as §1
# [14] = target: Gal(b1-4)GlcNAc(b1-2)Man(a1-3)[Gal(b1-4)GlcNAc(b1-2)Man(a1-6)][Gal(b1-4)GlcNAc(b1-4)]Man(b1-4)GlcNAc(b1-4)[Fuc(a1-6)]GlcNAc
# Procedure, shortened: as §1
# [15] = target: Gal(b1-4)GlcNAc(b1-2)Man(a1-3)[Gal(b1-4)GlcNAc(b1-2)Man(a1-6)][GlcNAc(b1-4)]Man(b1-4)GlcNAc(b1-4)[Fuc(a1-6)]GlcNAc
# Procedure, shortened: as §1
# [16] = target: Gal(b1-4)GlcNAc(b1-2)Man(a1-3)[Gal(b1-4)GlcNAc(b1-2)][GlcNAc(b1-4)]Man(b1-4)GlcNAc(b1-4)GlcNAc
# Procedure, shortened: as §1
# [17] = target: Gal(b1-4)GlcNAc(b1-2)Man(a1-3)[GlcNAc(b1-2)Man(a1-6)]Man(b1-4)GlcNAc(b1-4)GlcNAc
# Procedure, shortened: as §1
# [18] = target: Gal(b1-4)GlcNAc(b1-2)Man(a1-3)[GlcNAc(b1-4)][Gal(b1-4)GlcNAc(b1-2)Man(a1-6)]Man(b1-4)GlcNAc(b1-4)GlcNAc
# Procedure, shortened: as §1
# [19] = target: Gal(b1-4)GlcNAc(b1-2)Man(a1-3)[Man(a1-6)]Man(b1-4)GlcNAc(b1-4)GlcNAc
# Procedure, shortened: as §1
# [20] = target: Gal(b1-4)GlcNAc(b1-2)Man(a1-6)Man(b1-4)GlcNAc(b1-4)GlcNAc
# Procedure, shortened: as §1
# [21] = target: Gal(b1-4)GlcNAc(b1-2)Man(a1-6)[GlcNAc(b1-2)Man(a1-3)]Man(b1-4)GlcNAc(b1-4)GlcNAc
# Procedure, shortened: as §1
# [22] = target: Gal(b1-4)GlcNAc(b1-2)Man(a1-6)[Man(a1-3)]Man(b1-4)GlcNAc(b1-4)GlcNAc
# Procedure, shortened: as §1
# [23] = target: Gal(b1-4)GlcNAc(b1-2)[Gal(b1-4)GlcNAc(b1-4)]Man(a1-3)[Gal(b1-4)GlcNAc(b1-2)Man(a1-6)]Man(b1-4)GlcNAc(b1-4)GlcNAc
# Procedure, shortened: as §1
# [24] = target: Gal(b1-4)GlcNAc(b1-2)[Gal(b1-4)GlcNAc(b1-4)]Man(a1-3)[Gal(b1-4)GlcNAc(b1-2)[Gal(b1-4)GlcNAc(b1-6)]Man(a1-6)]Man(b1-4)GlcNAc(b1-4)GlcNAc
# Procedure, shortened: as §1
# [25] = target: Gal(b1-4)GlcNAc(b1-2)[Gal(b1-4)GlcNAc(b1-4)]Man(a1-3)[GlcNAc(b1-4)][Gal(b1-4)GlcNAc(b1-2)Man(a1-6)]Man(b1-4)GlcNAc(b1-4)GlcNAc
# Procedure, shortened: as §1
# [26] = target: Gal(b1-4)GlcNAc(b1-2)[Gal(b1-4)GlcNAc(b1-4)]Man(a1-3)[GlcNAc(b1-4)][Gal(b1-4)GlcNAc(b1-2)[Gal(b1-4)GlcNAc(b1-6)]Man(a1-6)]Man(b1-4)GlcNAc(b1-4)GlcNAc
# Procedure, shortened: as §1
# [27] = target: Gal(b1-4)GlcNAc(b1-2)[Gal(b1-4)GlcNAc(b1-6)]Man(a1-6)[Gal(b1-4)GlcNAc(b1-2)Man(a1-3)]Man(b1-4)GlcNAc(b1-4)GlcNAc
# Procedure, shortened: as §1
# [28] = target: Gal(b1-4)GlcNAc(b1-2)[Gal(b1-4)GlcNAc(b1-6)]Man(a1-6)[Gal(b1-4)GlcNAc(b1-2)Man(a1-3)]Man(b1-4)GlcNAc(b1-4)[Fuc(a1-6)]GlcNAc
# Procedure, shortened: as §1
# [29] = target: Gal(b1-4)GlcNAc(b1-2)[Gal(b1-4)GlcNAc(b1-6)]Man(a1-6)[GlcNAc(b1-4)][Gal(b1-4)GlcNAc(b1-2)Man(a1-3)]Man(b1-4)GlcNAc(b1-4)GlcNAc
# Procedure, shortened: as §1
# [30] = target: Gal(b1-4)GlcNAc(b1-2)[Gal(b1-4)GlcNAc(b1-6)]Man(a1-6)[GlcNAc(b1-4)][Gal(b1-4)GlcNAc(b1-2)[Gal(b1-4)GlcNAc(b1-4)]Man(a1-3)]Man(b1-4)GlcNAc(b1-4)[Fuc(a1-6)]GlcNAc
# Procedure, shortened: as §1
# [31] = target: Gal(b1-4)GlcNAc(b1-3)Gal(b1-3)GalNAc
# Procedure, shortened: as §1
# [32] = target: Gal(b1-4)GlcNAc(b1-3)Gal(b1-3)GlcNAc
# Procedure, shortened: as §1
# [33] = target: Gal(b1-4)GlcNAc(b1-3)Gal(b1-4)Glc
# Procedure, shortened: as §1
# [34] = target: Gal(b1-4)GlcNAc(b1-3)Gal(b1-4)GlcNAc
# Procedure, shortened: as §1
# [35] = target: Gal(b1-4)GlcNAc(b1-3)Gal(b1-4)GlcNAc(b1-2)Man(a1-3)[Gal(b1-4)GlcNAc(b1-3)Gal(b1-4)GlcNAc(b1-2)Man(a1-6)]Man(b1-4)GlcNAc(b1-4)GlcNAc
# Procedure, shortened: as §1
# [36] = target: Gal(b1-4)GlcNAc(b1-3)Gal(b1-4)GlcNAc(b1-2)Man(a1-3)[Gal(b1-4)GlcNAc(b1-3)Gal(b1-4)GlcNAc(b1-2)Man(a1-6)]Man(b1-4)GlcNAc(b1-4)[Fuc(a1-6)]GlcNAc
# Procedure, shortened: as §1
# [37] = target: Gal(b1-4)GlcNAc(b1-3)Gal(b1-4)GlcNAc(b1-2)[Gal(b1-4)GlcNAc(b1-3)Gal(b1-4)GlcNAc(b1-6)]Man(a1-6)[Gal(b1-4)GlcNAc(b1-3)Gal(b1-4)GlcNAc(b1-2)Man(a1-3)]Man(b1-4)GlcNAc(b1-4)GlcNAc
# Procedure, shortened: as §1
# [38] = target: Gal(b1-4)GlcNAc(b1-3)Gal(b1-4)GlcNAc(b1-2)[Gal(b1-4)GlcNAc(b1-3)Gal(b1-4)GlcNAc(b1-6)]Man(a1-6)[Gal(b1-4)GlcNAc(b1-3)Gal(b1-4)GlcNAc(b1-2)Man(a1-3)]Man(b1-4)GlcNAc(b1-4)[Fuc(a1-6)]GlcNAc
# Procedure, shortened: as §1
binder,measurement,setting,value
rAAL-2 (Agrocybe aegerita) (protein) MTSNVITQDLPIPVASRGFADIVGFGLDGVVIGRNAVNLQPFLAVKNFAQNAGGWLTTKHVRLIADTTGTGKGDIVGFGNAGVYVSVNNGKNTFADPPKMVIANFGYDAGGWRVEKHLRYLADIRKIGRADIIGFGEKGVLVSRNNGGLNFGPATLVLKDFGYDAGGWRLDRHLRFLADVTGNGHLDIVGFGDKHVFISRNNGDGTFAPAKSVIDNFCIDAGGWKIGDHPRFVADLTGDGTADIIGCGKAGCWVALNNGGGVFGQVKLVINDFGTDKGWQAAKHPRFIADLTGNGRGDVVGFGNAGVYVALNNGDGTFQSAKLVLKDFGVQQGWTVSKHRRFVVDLTGDGCADIIGFGEKETLVSYNDGKGNFGPVKALTNDFSFSGGKWAPETTVCWMANLDSSRH,glycan array binding signal (z-score),[1],-0.269
same,glycan array binding signal (z-score),[2],-0.279
same,glycan array binding signal (z-score),[3],-0.213
same,glycan array binding signal (z-score),[4],-0.033
same,glycan array binding signal (z-score),[5],-0.327
same,glycan array binding signal (z-score),[6],-0.135
same,glycan array binding signal (z-score),[7],-0.155
same,glycan array binding signal (z-score),[8],-0.135
same,glycan array binding signal (z-score),[9],-0.315
same,glycan array binding signal (z-score),[10],-0.16
same,glycan array binding signal (z-score),[11],-0.126
same,glycan array binding signal (z-score),[12],-0.327
same,glycan array binding signal (z-score),[13],-0.267
same,glycan array binding signal (z-score),[14],-0.282
same,glycan array binding signal (z-score),[15],-0.482
same,glycan array binding signal (z-score),[16],-0.266
same,glycan array binding signal (z-score),[17],-0.269
same,glycan array binding signal (z-score),[18],-0.61
same,glycan array binding signal (z-score),[19],-0.217
same,glycan array binding signal (z-score),[20],-0.233
same,glycan array binding signal (z-score),[21],-0.177
same,glycan array binding signal (z-score),[22],-0.355
same,glycan array binding signal (z-score),[23],-0.261
same,glycan array binding signal (z-score),[24],-0.304
same,glycan array binding signal (z-score),[25],-0.183
same,glycan array binding signal (z-score),[26],-0.301
same,glycan array binding signal (z-score),[27],-0.42
same,glycan array binding signal (z-score),[28],-0.252
same,glycan array binding signal (z-score),[29],-0.303
same,glycan array binding signal (z-score),[30],-0.503
same,glycan array binding signal (z-score),[31],-0.28
same,glycan array binding signal (z-score),[32],-0.112
same,glycan array binding signal (z-score),[33],-0.317
same,glycan array binding signal (z-score),[34],-0.201
same,glycan array binding signal (z-score),[35],0.021
same,glycan array binding signal (z-score),[36],-0.429
same,glycan array binding signal (z-score),[37],-0.308
same,glycan array binding signal (z-score),[38],-0.236
